Experimental findings from paper PMC4336329 (PLoS ONE, 2015) are described below.

The whole screen tested about 310,000 compounds, of which about 14,000 (4.5%) showed an effect of 50% or more. The effect is printed as a negative number. The list shows a part of the results.
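Further: peak tail current of the secondary pulse compared with the same well before compound.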

For this experiment, the target named is human ether-à-go-go-related gene (hERG) potassium channel (human, UniProt Q12809). As to the kind of experiment: primary screen, population patch clamp on CHO cells stably expressing hERG.
human ether-à-go-go-related gene (hERG) potassium channel, sequence (Q12809 whole entry, looked up): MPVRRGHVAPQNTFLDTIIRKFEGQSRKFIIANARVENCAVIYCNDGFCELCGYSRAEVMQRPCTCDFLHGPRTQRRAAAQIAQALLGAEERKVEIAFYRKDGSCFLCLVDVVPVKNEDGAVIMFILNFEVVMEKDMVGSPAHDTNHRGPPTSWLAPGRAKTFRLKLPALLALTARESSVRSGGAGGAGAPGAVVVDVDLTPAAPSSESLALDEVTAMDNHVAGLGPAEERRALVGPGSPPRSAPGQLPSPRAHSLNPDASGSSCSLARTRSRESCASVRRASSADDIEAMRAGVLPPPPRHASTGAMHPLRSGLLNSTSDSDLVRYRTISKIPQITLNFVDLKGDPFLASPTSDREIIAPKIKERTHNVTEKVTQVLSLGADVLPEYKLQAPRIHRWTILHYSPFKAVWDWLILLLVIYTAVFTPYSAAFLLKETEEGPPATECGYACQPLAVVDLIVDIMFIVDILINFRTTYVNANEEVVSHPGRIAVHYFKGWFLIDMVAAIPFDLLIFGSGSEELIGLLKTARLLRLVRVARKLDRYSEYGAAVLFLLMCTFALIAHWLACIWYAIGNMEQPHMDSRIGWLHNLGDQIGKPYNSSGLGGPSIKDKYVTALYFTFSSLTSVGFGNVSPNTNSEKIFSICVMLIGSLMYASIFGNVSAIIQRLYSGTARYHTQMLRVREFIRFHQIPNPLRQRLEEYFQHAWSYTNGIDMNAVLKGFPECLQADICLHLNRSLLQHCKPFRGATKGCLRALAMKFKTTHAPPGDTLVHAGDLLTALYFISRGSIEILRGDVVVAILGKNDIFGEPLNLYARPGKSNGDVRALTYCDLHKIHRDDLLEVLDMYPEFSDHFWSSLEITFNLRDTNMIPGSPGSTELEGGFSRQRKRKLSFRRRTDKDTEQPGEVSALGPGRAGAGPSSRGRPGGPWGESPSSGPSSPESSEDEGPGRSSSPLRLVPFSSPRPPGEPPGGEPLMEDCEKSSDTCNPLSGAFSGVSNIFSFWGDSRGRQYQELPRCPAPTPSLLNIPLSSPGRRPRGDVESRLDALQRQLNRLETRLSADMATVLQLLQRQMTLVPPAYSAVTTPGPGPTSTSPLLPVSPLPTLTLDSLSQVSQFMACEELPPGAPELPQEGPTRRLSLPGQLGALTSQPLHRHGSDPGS
For `COc1cccc(CC2(CO)CCCN(Cc3ccc4c(c3)OCCO4)C2)c1` (stereo not shown), the “hERG current change (%, negative = inhibition) at 10uM” value is reported as -58.5%.

Take `COc1ccc(Oc2cn[nH]c2-c2ccc(O)cc2O)cc1`: the “hERG current change (%, negative = inhibition) at 10uM” value is -6.52%.

`CCCCCCCCn1cnc2c(N)c(C)c(C)cc21`: the “hERG current change (%, negative = inhibition) at 10uM” value turned out to be 12.1%.

In the case of `CCc1ccccc1N(CC(=O)NC1CCCCC1)C(=O)CCC(=O)Nc1ccccn1`, the “hERG current change (%, negative = inhibition) at 10uM” value was found to be 5.54%.

With `O=C1CCC([N+](=O)[O-])C(c2ccc(Cl)c([N+](=O)[O-])c2)N1` (stereo not shown), the “hERG current change (%, negative = inhibition) at 10uM” value is given as 10.6%.

As to `CCCCOc1ccc(N2C(=O)CC(NCc3ccncc3)C2=O)cc1` (stereo not shown), the “hERG current change (%, negative = inhibition) at 10uM” value is reported as -32.7%.

As to `NS(=O)(=O)c1ccc(CCNC(=O)CNC(=O)c2ccc(F)cc2)cc1`, the “hERG current change (%, negative = inhibition) at 10uM” value turned out to be 25.3%.

With `CCN(Cc1ccccc1)S(=O)(=O)c1cc2[nH]c(=O)c(=O)[nH]c2cc1C`, the “hERG current change (%, negative = inhibition) at 10uM” value was determined as 6.58%.

As for `COc1ccccc1C(=O)NC(=O)COC(=O)c1cc[n+]([O-])cc1`, the “hERG current change (%, negative = inhibition) at 10uM” value is -3.56%.

Turning to `COc1ccccc1C(=O)NC1CCN(C(=S)NCCc2ccccc2)CC1`, the “hERG current change (%, negative = inhibition) at 10uM” value is reported as -14.4%.

For `O=C(OCC(=O)N1CCN(c2ccccc2)CC1)c1ccccn1`, the “hERG current change (%, negative = inhibition) at 10uM” value is on record as -6.34%.

As for `Cc1ccccc1C(=O)N/N=C/c1ccncc1`, the “hERG current change (%, negative = inhibition) at 10uM” value stood at 23.8%.

Consider `CCC(C)(C)C1CCc2[nH]nc(C(=O)NC(C)C)c2C1` (stereo not shown), for which the “hERG current change (%, negative = inhibition) at 10uM” value is 12.7%.

Regarding `Nc1nc(NCc2ccccc2)nc(Nc2cccc(F)c2)c1[N+](=O)[O-]`, the “hERG current change (%, negative = inhibition) at 10uM” value was found to be 12.9%.

As for `O=C(CCNc1ccc(F)cc1)c1ccco1`, the “hERG current change (%, negative = inhibition) at 10uM” value was -1.99%.

Regarding `CCN(CC)CCC(c1cc(OC)c(OC)c(OC)c1)c1c(OC)cc(OC)c2c(-c3ccccc3)cc(=O)oc12` (stereo not shown), the “hERG current change (%, negative = inhibition) at 10uM” value is recorded as -16.8%.

For the compound `COCc1cc(=O)[nH]c(Sc2c(-c3ccccc3)c3ccc(Cl)cc3[nH]c2=O)n1`, the “hERG current change (%, negative = inhibition) at 10uM” value is given as 20.4%.

In the case of `CN(CC(=O)NCCc1ccccc1)S(=O)(=O)c1ccc(Br)s1`, the “hERG current change (%, negative = inhibition) at 10uM” value is reported as -10.4%.

`CCCCC/C(=N\O)c1c[nH]c2ccccc12`: the “hERG current change (%, negative = inhibition) at 10uM” value is -14.4%.

With `CC(C)(C)c1cc(=O)n2c(nc3ccccc32)[nH]1`, the “hERG current change (%, negative = inhibition) at 10uM” value came out at 20.3%.

On to `COc1ccc(CCNC(=O)c2c[nH]c3ccccc3c2=O)cc1OC`, for which the “hERG current change (%, negative = inhibition) at 10uM” value is on record as -1.95%.

For the compound `CCOC(=O)c1ccc(NC(=O)CCC(=O)OC)cc1`, the “hERG current change (%, negative = inhibition) at 10uM” value is 15.4%.

Regarding `CC(NS(=O)(=O)c1ccc(OCC(=O)Nc2cccc([N+](=O)[O-])c2)cc1)c1ccccc1` (stereo not shown), the “hERG current change (%, negative = inhibition) at 10uM” value is recorded as 3.21%.

Take `CCCNC(=O)C(=O)NCc1ccccn1`: the “hERG current change (%, negative = inhibition) at 10uM” value was found to be 7.92%.

For `Cc1ccccc1S(=O)(=O)Nc1ncnc2scc(-c3ccccc3)c12`, the “hERG current change (%, negative = inhibition) at 10uM” value was -19.3%.

For the compound `O=C(CCN1C(=O)c2ccccc2C1=O)C1=NN[C@@H]2C(=O)N(c3ccc4c(c3)OCO4)C(=O)[C@H]12`, the “hERG current change (%, negative = inhibition) at 10uM” value is -7.14%.

Consider `Cc1cc(OC(C)C(=O)NCCCn2ccnc2)c2c(C)cc(=O)oc2c1` (stereo not shown), for which the “hERG current change (%, negative = inhibition) at 10uM” value is given as -15.4%.

For the compound `COc1ccc(C[C@@H]2CN3C(=NC[C@@H]3C)N2CCNC(=O)c2ccc(C)c(Br)c2)cc1`, the “hERG current change (%, negative = inhibition) at 10uM” value is on record as -71.4%.

For the compound `O=C(Oc1ccccc1C(=O)Nc1ccccc1)c1ccc(Br)c([N+](=O)[O-])c1`, the “hERG current change (%, negative = inhibition) at 10uM” value is 6.7%.

As to `O=C(c1ccc(COc2ccccc2Br)cc1)N1CCCCCC1`, the “hERG current change (%, negative = inhibition) at 10uM” value is 12.6%.

As for `Cc1ccc(-c2cc(C(=O)OCC(=O)Nc3ncc(C(F)(F)F)cc3Cl)c3ccccc3n2)cc1`, the “hERG current change (%, negative = inhibition) at 10uM” value is recorded as 6.23%.

Turning to `Cc1[nH]c2ccc(F)cc2c1CCNC(=O)C1CCCCC1C(=O)OCC(F)(F)F` (stereo not shown), the “hERG current change (%, negative = inhibition) at 10uM” value is on record as -18.7%.

On to `O=C(COC(=O)c1cc(-c2ccccc2)nc2ccccc12)Nc1ccc2c(c1)OCO2`, for which the “hERG current change (%, negative = inhibition) at 10uM” value is recorded as 10.7%.

Consider `Cn1c(=NC(=O)CCl)sc2ccccc21`, for which the “hERG current change (%, negative = inhibition) at 10uM” value is -12.6%.

In the case of `COc1ccc(N2C(=O)C(Cl)=C(N3CCOCC3)C2=O)cc1`, the “hERG current change (%, negative = inhibition) at 10uM” value is reported as 9.43%.

Regarding `C=CCn1c(SCCOc2ccc(OC)cc2)nnc1C(C)NC(=O)Cc1ccc(OC)cc1` (stereo not shown), the “hERG current change (%, negative = inhibition) at 10uM” value is -28%.

With `CN1C(C(=O)NCc2ccccc2)CC2Cn3c(nc4cc5ccccc5cc43)C21` (stereo not shown), the “hERG current change (%, negative = inhibition) at 10uM” value is listed as -67.9%.

For `CCOc1ccc(/C=N/NC(=O)COc2ccccc2-c2ccccc2)cc1`, the “hERG current change (%, negative = inhibition) at 10uM” value came out at 3.13%.

For the compound `COc1cccc(SCc2noc(C(=O)NCc3ccccc3)c2C(=O)NCc2ccccc2)c1`, the “hERG current change (%, negative = inhibition) at 10uM” value is given as 20.2%.

In the case of `Cc1cc2c(=O)n(C)c(SCC(=O)NC3CCCC3)nc2s1`, the “hERG current change (%, negative = inhibition) at 10uM” value is listed as 5.07%.

Take `Cc1ccc(C(=O)CSc2nc3ccc(C(=O)NCCN4CCCCC4)cc3c(=O)[nH]2)cc1`: the “hERG current change (%, negative = inhibition) at 10uM” value is given as 9.56%.

Take `CC(=O)Nc1c(O)n(C)c2ccccc12`: the “hERG current change (%, negative = inhibition) at 10uM” value is recorded as 13.6%.

`COC(=O)C(O)(c1ccc(N(C)C(=O)c2ccc(Cl)c(Cl)c2)cc1)C(F)(F)F` (stereo not shown): the “hERG current change (%, negative = inhibition) at 10uM” value is listed as -1.31%.
